These results are taken from article PMC9792355.

Chains of the proteins cited; added tags and fusions are not shown. Lines headed by an entry give the natural chain unless they say otherwise; changes in a name come on top. A line that says so, or that is headed by a name, gives the form on record, which may keep a tag or linker. Residues count along the entry.
UniProt Q9H3Y6: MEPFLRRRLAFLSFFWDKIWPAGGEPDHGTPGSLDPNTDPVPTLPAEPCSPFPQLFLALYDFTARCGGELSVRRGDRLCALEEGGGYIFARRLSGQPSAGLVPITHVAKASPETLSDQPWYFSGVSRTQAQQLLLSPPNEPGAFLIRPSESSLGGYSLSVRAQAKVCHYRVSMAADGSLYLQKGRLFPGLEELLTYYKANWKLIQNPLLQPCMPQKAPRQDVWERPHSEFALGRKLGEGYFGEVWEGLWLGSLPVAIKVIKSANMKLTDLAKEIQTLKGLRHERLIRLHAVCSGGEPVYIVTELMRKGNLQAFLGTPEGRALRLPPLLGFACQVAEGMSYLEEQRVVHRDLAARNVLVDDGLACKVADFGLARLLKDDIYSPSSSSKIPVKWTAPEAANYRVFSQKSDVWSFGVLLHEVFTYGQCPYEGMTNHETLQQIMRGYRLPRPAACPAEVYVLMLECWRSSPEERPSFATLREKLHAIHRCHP
UniProt P08631, residues 22-526: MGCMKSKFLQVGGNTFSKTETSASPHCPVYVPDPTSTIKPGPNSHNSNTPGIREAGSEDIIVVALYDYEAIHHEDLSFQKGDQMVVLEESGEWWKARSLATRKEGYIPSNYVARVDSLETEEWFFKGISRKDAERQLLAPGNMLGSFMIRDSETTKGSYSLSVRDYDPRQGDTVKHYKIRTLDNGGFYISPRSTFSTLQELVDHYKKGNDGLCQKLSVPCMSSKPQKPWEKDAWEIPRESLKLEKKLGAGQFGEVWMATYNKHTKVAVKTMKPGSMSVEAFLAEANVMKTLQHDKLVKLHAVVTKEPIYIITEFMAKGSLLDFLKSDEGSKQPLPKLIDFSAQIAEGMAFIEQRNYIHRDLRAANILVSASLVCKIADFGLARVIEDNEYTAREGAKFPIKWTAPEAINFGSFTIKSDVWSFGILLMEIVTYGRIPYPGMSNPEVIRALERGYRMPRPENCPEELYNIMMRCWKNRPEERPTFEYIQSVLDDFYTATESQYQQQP
UniProt P42685: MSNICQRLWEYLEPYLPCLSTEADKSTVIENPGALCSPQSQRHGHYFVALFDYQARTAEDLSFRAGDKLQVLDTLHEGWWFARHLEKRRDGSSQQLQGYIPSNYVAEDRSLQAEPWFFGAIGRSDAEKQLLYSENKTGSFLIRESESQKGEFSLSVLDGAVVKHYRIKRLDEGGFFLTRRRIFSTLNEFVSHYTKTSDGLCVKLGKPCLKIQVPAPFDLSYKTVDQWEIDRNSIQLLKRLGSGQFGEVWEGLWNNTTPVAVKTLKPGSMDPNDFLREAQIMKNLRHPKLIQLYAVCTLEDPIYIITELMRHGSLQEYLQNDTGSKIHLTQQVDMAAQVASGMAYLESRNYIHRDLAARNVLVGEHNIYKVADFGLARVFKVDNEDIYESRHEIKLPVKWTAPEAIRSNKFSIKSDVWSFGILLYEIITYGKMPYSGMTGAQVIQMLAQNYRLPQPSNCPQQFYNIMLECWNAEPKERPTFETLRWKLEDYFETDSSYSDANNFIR
UniProt P07947: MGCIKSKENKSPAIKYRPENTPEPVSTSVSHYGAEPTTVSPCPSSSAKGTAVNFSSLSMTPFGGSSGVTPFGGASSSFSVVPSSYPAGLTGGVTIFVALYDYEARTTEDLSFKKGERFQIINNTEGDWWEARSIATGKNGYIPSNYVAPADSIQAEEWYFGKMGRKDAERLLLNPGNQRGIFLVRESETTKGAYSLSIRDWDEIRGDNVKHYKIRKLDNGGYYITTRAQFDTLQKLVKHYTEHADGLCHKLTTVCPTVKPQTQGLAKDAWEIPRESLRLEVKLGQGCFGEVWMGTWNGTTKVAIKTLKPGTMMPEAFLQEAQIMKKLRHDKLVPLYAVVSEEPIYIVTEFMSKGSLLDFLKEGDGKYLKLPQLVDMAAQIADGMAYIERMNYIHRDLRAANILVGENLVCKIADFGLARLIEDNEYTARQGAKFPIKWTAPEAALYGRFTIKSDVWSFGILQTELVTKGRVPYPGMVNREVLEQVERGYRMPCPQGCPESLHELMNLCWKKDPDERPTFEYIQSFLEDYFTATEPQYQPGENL
UniProt P51451: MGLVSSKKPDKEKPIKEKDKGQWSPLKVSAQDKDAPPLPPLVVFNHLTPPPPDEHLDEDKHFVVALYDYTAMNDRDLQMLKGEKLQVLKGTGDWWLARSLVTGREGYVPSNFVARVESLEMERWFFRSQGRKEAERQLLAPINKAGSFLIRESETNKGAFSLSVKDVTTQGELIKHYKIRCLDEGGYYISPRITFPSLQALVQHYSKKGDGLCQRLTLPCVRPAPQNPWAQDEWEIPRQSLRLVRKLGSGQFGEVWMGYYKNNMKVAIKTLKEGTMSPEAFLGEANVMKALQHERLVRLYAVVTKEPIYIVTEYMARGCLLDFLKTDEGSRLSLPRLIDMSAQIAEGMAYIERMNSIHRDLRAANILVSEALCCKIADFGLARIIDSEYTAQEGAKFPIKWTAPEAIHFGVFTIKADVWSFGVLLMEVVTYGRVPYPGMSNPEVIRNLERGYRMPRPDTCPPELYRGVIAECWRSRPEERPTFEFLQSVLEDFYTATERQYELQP
UniProt O75563: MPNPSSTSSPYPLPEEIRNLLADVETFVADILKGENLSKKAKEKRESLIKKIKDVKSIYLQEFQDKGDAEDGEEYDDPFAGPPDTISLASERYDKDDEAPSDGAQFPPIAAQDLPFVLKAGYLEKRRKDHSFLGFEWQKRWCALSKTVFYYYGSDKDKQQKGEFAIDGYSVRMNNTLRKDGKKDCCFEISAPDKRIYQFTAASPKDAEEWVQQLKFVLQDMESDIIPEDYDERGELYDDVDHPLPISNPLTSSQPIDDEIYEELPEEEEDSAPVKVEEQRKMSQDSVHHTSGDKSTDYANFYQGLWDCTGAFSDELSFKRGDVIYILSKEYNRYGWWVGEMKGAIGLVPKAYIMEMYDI
N2-SKAP2 D129K-3YF mutant (O75563, form named): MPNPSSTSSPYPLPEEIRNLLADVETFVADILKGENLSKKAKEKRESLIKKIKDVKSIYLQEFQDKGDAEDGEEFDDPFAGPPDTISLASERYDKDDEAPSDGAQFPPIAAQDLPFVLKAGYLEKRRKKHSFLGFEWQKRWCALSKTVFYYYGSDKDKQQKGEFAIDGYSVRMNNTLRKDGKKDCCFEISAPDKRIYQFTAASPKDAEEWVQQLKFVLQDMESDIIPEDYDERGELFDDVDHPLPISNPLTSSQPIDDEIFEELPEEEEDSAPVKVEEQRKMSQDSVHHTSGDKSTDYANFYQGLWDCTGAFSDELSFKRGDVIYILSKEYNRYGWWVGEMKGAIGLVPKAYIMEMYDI
N2-SKAP2 DIM^−-D129K mutant (O75563, form named): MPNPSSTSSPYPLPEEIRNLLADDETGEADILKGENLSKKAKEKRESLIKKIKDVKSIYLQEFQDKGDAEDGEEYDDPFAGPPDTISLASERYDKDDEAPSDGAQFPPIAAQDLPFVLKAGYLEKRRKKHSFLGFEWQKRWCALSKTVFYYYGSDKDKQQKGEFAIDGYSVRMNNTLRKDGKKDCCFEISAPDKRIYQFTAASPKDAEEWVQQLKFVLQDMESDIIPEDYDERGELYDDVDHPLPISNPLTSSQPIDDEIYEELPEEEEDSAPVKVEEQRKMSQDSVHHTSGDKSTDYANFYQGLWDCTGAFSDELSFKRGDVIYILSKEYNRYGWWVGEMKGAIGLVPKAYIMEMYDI

Holding throughout (experiment): split reporter; Gaussia princeps luciferase complementation assay (GPCA) in HEK293T cells: Gluc2 on SKAP2/SKAP1, Gluc1 at the N (N1) or C (C1) terminus of the SRC kinase; 100 ng plasmid pair, luminescence read after lysis; normalized luminescence ratio (NLR), for mutants divided by that of wildtype SKAP2; loss of interaction = mean relative NLR among the nine kinases below 0.25

Assay [1] addresses C1-fused SRMS (Src-related kinase lacking C-terminal regulatory tyrosine and N-terminal myristylation sites) (UniProt Q9H3Y6).
For assay [2], the target named is N1-fused HCK (hematopoietic cell kinase), wildtype (UniProt P08631).
Assay [3] has as its target N1-fused SRMS (Src-related kinase lacking C-terminal regulatory tyrosine and N-terminal myristylation sites) (UniProt Q9H3Y6).
In assay [4] the target is C1-fused FRK (Fyn-related Src family tyrosine kinase) (UniProt P42685).
A further assay concerns the target C1-fused YES (UniProt P07947).
The target in assay [5] is N1-fused FGR (Feline Gardner-Rasheed sarcoma viral homolog) (UniProt P09769).
Assay [6] has as its target N1-fused HCK (hematopoietic cell kinase), wildtype (UniProt P08631). This is another data set of the same source.
The next assay has as its target N1-fused YES (UniProt P07947).
Assay [7] deals with N1-fused SRMS (Src-related kinase lacking C-terminal regulatory tyrosine and N-terminal myristylation sites) (UniProt Q9H3Y6). This is another data set of the same source.
Assay [8] addresses C1-fused FRK (Fyn-related Src family tyrosine kinase) (UniProt P42685). This is another data set of the same source.
The target of assay [9] is N1-fused BLK (B lymphocyte kinase) (UniProt P51451).
Assay [10] addresses C1-fused BLK (B lymphocyte kinase) (UniProt P51451).
Assay [11] addresses N1-fused FRK (Fyn-related Src family tyrosine kinase) (UniProt P42685).

Read-outs that look alike come from different tables or passages of the source. No constants are given. Whether binding was seen depends on the method and setting. In cells and extracts the contact can be indirect. Some entries that bind do so weakly or less than the wild type.

Turning to “N2-SKAP2 DIM^− mutant (V24D, F27G, V28E) (from UniProt O75563 1-359)”, the binding result (in assay [1]; in [2]; in assay [3]; in assay [4]; with C1-fused YES) was “binds” in each case.
“N2-SKAP2 D129K-3YF mutant (from UniProt O75563 1-359)”: the binding result (in assay [1]; in assay [2]; in assay [3]; in assay [4]; with C1-fused YES) was “binds” each time.
Take “N2-SKAP2 DIM^−-D129K mutant (from UniProt O75563 1-359)”: the binding entry (in assay [1]; in assay [2]; in [3]; in [4]; with C1-fused YES) was “binds” each time.
“N2-SKAP2 SH3 deletion mutant (SH3 domain alone) (from UniProt O75563 297-358) (domain or fragment)”: the binding result (in assay [1]; in assay [2]; in assay [3]; in [4]; with C1-fused YES) was “no binding” in each case.
“N2-SKAP2 (SRC kinase adaptor phosphoprotein 2, wildtype) (from UniProt O75563 1-359)”: the binding result (in assay [1]; in [2]; in assay [3]; in assay [4]; with C1-fused YES) was “binds” in each case.
Turning to “N2-SKAP2 W336K mutant (from UniProt O75563 1-359)”, the binding entry (in [1]; in assay [2]; in [3]; in assay [4]; in the assay with C1-fused YES) was “binds” throughout.
As to “N2-SKAP2 D129K mutant (from UniProt O75563 1-359)”, the binding result (in [1]; in assay [2]; in [3]; in [4]; with C1-fused YES) was “binds” in each case.
Turning to “N2-SKAP2 3YF mutant (Y75F, Y237F, Y261F) (from UniProt O75563 1-359)”, the binding entry (in [1]; in assay [2]; in assay [3]; in [4]; with C1-fused YES) was “binds” throughout.

B1: N2-SKAP1 (SRC kinase adaptor phosphoprotein 1) (protein, UniProt Q86WV1 1-359)
chain: MQAAALPEEIRWLLEDAEEFLAEGLRNENLSAVARDHRDHILRGFQQIKARYYWDFQPQGGDIGQDSSDDNHSGTLGLSLTSDAPFLSDYQDEGMEDIVKGAQELDNVIKQGYLEKKSKDHSFFGSEWQKRWCVVSRGLFYYYANEKSKQPKGTFLIKGYGVRMAPHLRRDSKKESCFELTSQDRRSYEFTATSPAEARDWVDQISFLLKDLSSLTIPYEEDEEEEEKEETYDDIDGFDSPSCGSQCRPTILPGSVGIKEPTEEKEEEDIYEVLPDEEHDLEEDESGTRRKGVDYASYYQGLWDCHGDQPDELSFQRGDLIRILSKEYNMYGWWVGELNSLVGIVPKEYLTTAFEVEER
For the molecule B1, the binding entry (in assay [5]; in assay [6]; with N1-fused YES; in [7]; in [8]; in assay [9]) was “binds” each time. Moreover, the binding result in assay [10] and in assay [11] was “binds” in each case.
